Experimental data taken from PubChem BioAssay AID1508623 (National Center for Advancing Translational Sciences (NCATS), 2021).
Among all 48,000 compounds or so, about 450 (0.94%) were called active. About 19% were inconclusive and are not listed. Calls come from the whole dose curve; as a rule, active = well fitted inhibition curve with a large enough effect; inconclusive = small, poorly fitted or top-dose-only effect; inactive = no such curve, though single readings can be large or run the other way. The list shows a part of the results.

Test: Primary qHTS for Identification of Small Molecule Inhibitors of Huntingtin Promoter Activity; note: nearly all actives have a fitted effect of over 50% in size
Conditions: HEK293 HTT promoter firefly luciferase reporter (activity 0% = vehicle and -100% = no light), 24 h; series mostly up to 57.5 µM; activity change, negative = inhibition: at the top concentration
How it was run: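 Firefly luciferase signal from promoter-reporter HEK293 cells was scaled between vehicle (0%) and zero RLU (-100%). Compounds were tested at final concentrations of up to 57.5 uM over 24 h at 37 degrees C. PTC124 at 50 uM final served as control inhibitor.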

Activity change, negative = inhibition, inactive:
COc1ccc(OC)c(NC(=O)CSc2ccc(-c3cccs3)nn2)c1 -24.3%
COc1cc(OC)c(NC(=O)C2CCN(S(=O)(=O)c3c(C)noc3/C=C/c3c(C)cc(C)cc3C)CC2)cc1Cl -8.33%
CN(Cc1ccccc1)C(=O)c1cn(C)c2ccc(S(=O)(=O)N3CCCCC3)cc2c1=O -19.2%
COc1cccc(OCc2nc3ccccc3n2CCOc2ccc(C)cc2)c1 -20.3%
COc1ccc2[nH]cc(CCNC(C)=O)c2c1
CC12CN3CC(c4ccccc4)(CN(C1)C3c1ccc(O)cc1)C2=O (stereo not drawn) 8.45%
Cn1c(=O)oc2cc(S(=O)(=O)NC(Cc3ccccc3)C(=O)Nc3ccc(F)cc3)ccc21 (stereo not drawn) -23.9%
CCOC(=O)c1c(NC(=O)C(C)Sc2cn(CCNC(=O)c3c(F)cccc3F)c3ccccc23)sc2c1CCC2 (stereo not drawn) -20.9%
Cc1ccc(Sc2c(C)nn(-c3ccccc3)c2OC(=O)C(C)(C)C)cc1 -10.5%
COc1ccc(OC)c(NS(=O)(=O)c2cc3c(cc2Cl)N(C(C)=O)CCO3)c1 -16.8%
CCOc1ccc(NC(=O)CC2C(=O)N(c3ccc(F)cc3)C(=O)N2Cc2ccc(OC)c(OC)c2)cc1 (stereo not drawn) -15.2%
COC(=O)c1c(NC(=O)C(C)Oc2ccc(Cl)c(C)c2)sc(C)c1C (stereo not drawn) -15.4%
CCN1C(=O)c2ccccc2S(=O)c2ccc(C(=O)NCc3ccc(OC)cc3)cc21 (stereo not drawn) -0.989%
O=C(CSc1nc2cc(C(=O)NC3CCCC3)ccc2c(=O)n1CC1CCCO1)c1cccc(Cl)c1 (stereo not drawn) -21.7%
COc1ccccc1NC(=O)CSc1nnc(N)s1 -3.83%
COc1ccc(CCNc2oc(/C=C/c3cc(OC)c(OC)c(OC)c3)nc2C#N)cc1OC -5.83%
CN(C)c1ccc(CN(Cc2ccco2)C(=O)c2ccc(C(C)(C)C)cc2)cc1 -28.9%
Cc1ccc(-c2nc3nc(C)cc(N4CCN(c5cccc(C)c5C)CC4)n3n2)cc1 3.31%
Cc1oc(-c2cccc(Cl)c2)nc1CSc1nncn2c1cc1occc12 -1.02%
CCc1ccc(CNC(=O)c2cc(=O)[nH]c3ccc(S(=O)(=O)N4CCCCC4)cc23)cc1 -1.39%
Cc1c(Cl)ccc2sc(N3CCN(C(=O)C(C)C)CC3)nc12 -20.6%
CCOC(=O)c1c(C)oc2nc(C)nc(Nc3ccc(C)c(Cl)c3)c12 -6.54%
CCOC(=O)c1c(NC(=O)c2cc(C(C)C)on2)sc(C(C)=O)c1C 6.14%
COc1ccc(OCC(=O)Nc2nnc(S(=O)(=O)N3CCc4ccccc43)s2)cc1 -7.25%
CCOc1ccc(C(=O)/C=C/c2cn(CC(O)CN3CCCCCC3)c3ccccc23)cc1 (stereo not drawn) -4.85%
CCOC(=O)c1ccccc1NC(=O)C1CCN(c2ncnc3c2nc2n3CCCCC2)CC1 -11.7%
CCOc1ccc(C(=O)c2cn(CC(=O)Nc3ccc(OC)cc3)c3cc4c(cc3c2=O)OCCO4)cc1 2.16%
COc1ccc2[nH]c(=O)c(CN(C(=O)c3cccc(Cl)c3)c3ccccc3C)cc2c1 -15.4%
Cc1cc2nnc(SCc3ccc(F)cc3)n2c2ccccc12 -4.16%
CC(C)CCn1c(=O)c2cccnc2n(CC(=O)Nc2ccc(F)cc2)c1=O -21.2%
CC1CN(c2ccc(Cl)cc2)c2nc3c(c(=O)n(CC(=O)O)c(=O)n3C)n2C1 (stereo not drawn) -0.344%
COc1ccc2occ(CC(=O)Nc3ccc(S(=O)(=O)Nc4nccc(C)n4)cc3)c2c1 -15.5%
Cc1ccc(CNC(=O)c2sc3nc[nH]c(=O)c3c2C)cc1 -10.4%
CN1CCN(C2(CNC(=O)c3ccc(C(C)(C)C)cc3)CCCCC2)CC1 -12.2%
C#CCn1c(C2CC(=O)N(c3ccc(OC)cc3)C2)nc2ccccc21 (stereo not drawn) -10%
COc1cccc(CNC(=O)Cn2c(=O)ccc3cc(S(=O)(=O)N4CCC(C)CC4)ccc32)c1 -15%
COc1ccc(-n2c3c(c(=O)[nH]c2=O)C(NC(=O)c2ccccc2Cl)(C(F)(F)F)C(=O)N3)cc1 (stereo not drawn) -8.81%
COc1cccc(C(=O)NCc2ccc3c(c2)CCN3C(=O)c2ccncc2)c1 -1.52%
COc1ccccc1-c1nc(SCC(=O)c2ccccc2)n[nH]1 6.79%
COc1ccc(CNc2nc(SCc3ccc(Cl)cc3)nc3ccccc23)cc1 9.2%
CCCCCN1C(C(=O)c2ccccc2)=C(NC(=O)c2ccc(OC)cc2)c2ccccc2S1(=O)=O -14.9%
Cc1cc(C)c(NC(=O)C(C)n2c(=O)c(C(F)(F)F)nc3ccccc32)c(C)c1 (stereo not drawn) -26.1%
CCOC(=O)CC(NC(=O)CCc1c(C)nc2c(c(C)nn2-c2ccc(C)c(C)c2)c1C)c1ccc(C)cc1 (stereo not drawn) -13.2%
Cc1cc(C)cc(OCC(=O)Nc2nc3c(s2)CC(C(C)(C)C)CC3)c1 (stereo not drawn) -18.2%
Cc1cccc(-n2ncc(C(=O)N3CCN(C4CCCCC4)CC3)c2C2CCN(C(=O)OC(C)(C)C)CC2)c1 -6.94%
COc1ccc(OC)c2sc(NC(=O)c3ccc(S(=O)(=O)N4CCCC4)cc3)nc12 -11.1%
CC(NC(=O)c1ccc2c(c1)CCN2S(C)(=O)=O)c1ccccc1 (stereo not drawn) -8.52%
Cc1ccc(CNC(=O)c2ccc3c(c2)nc(C)n3-c2cccc(F)c2)cc1 -5.47%
CCOc1ccc(NC(=O)CSC2=Nc3ccccc3C3=NC(CCC(=O)NCc4ccccc4)C(=O)N23)cc1 (stereo not drawn) -10.6%
Cc1cc(C(F)(F)F)n2nc(-c3ccc(Br)cc3)cc2n1 -6.77%
CCCCOc1ccc(-c2nn(-c3ccccc3)cc2C2NC(=O)NC(C)=C2C(=O)OCC)cc1 (stereo not drawn) -2.29%
COc1ccc(OCC(=O)NCc2ccc3c(c2)CCN3C(=O)c2ccccc2)cc1 -24.7%
O=C(c1cc2ccccc2oc1=O)N1CCN(c2ccc(Cl)cc2)CC1 -23.8%
O=C(NCCc1ccccc1)c1cnc2sc(N3CCCCCC3)nn2c1=O 18.5%
Cc1cc2oc(C(=O)Nc3ccc(S(N)(=O)=O)cc3)cc(=O)c2cc1C -0.926% [at 11.5 µM]
C[C@]12CC[C@H](O)CC1=CCC1C2CC[C@]2(C)C(n3cnc4ccccc43)=CCC12 (stereo partly drawn) 6.4%
CCc1cccc(NC(=O)CN2C(=O)COc3ccc(S(=O)(=O)Nc4ccccc4)cc32)c1 -28.3%
Cc1ccc(OCc2nc(-c3ccc(C(=O)N4CCN(c5ccccc5F)CC4)cc3)oc2C)cc1 -18.6%
O=C1OC(C(=O)Nc2cccc(Br)c2)Cc2ccccc21 (stereo not drawn) 0.688%
COc1ccc(CNC(=O)Cn2c(SCC(=O)Nc3ccc(OC)cc3)nc3ccccc32)cc1 -15%
Cc1cccc(-n2ncc(C(=O)N3CCN(c4ccc(Cl)cc4)CC3)c2C2CCN(C(=O)OC(C)(C)C)CC2)c1 4.03%
CCc1ccc2nc(N(CCN(CC)CC)C(=O)c3ccco3)sc2c1 24.5%
Cc1ccc(NC(=O)c2ccc(-c3cccc(Cl)c3C)o2)cc1 13.6%
COc1ccc(OC)c(CNC(=O)c2cc3c(-c4ccc(OC)c(OC)c4)nn(C)c3s2)c1 -9.24%
CN(C)S(=O)(=O)N(CC(=O)NCCSCc1ccccc1)c1ccccc1 -12.1%
Cc1ccc(C)c(NC(=O)CN2CCCN(Cc3cccc(Cl)c3)S2(=O)=O)c1 -18.8%
Cc1cc(OC(C)C(=O)Nc2c(C(=O)c3ccc(F)cc3)oc3ccccc23)ccc1Cl (stereo not drawn) -9.48%
CCc1ccc(Sc2cc(C(=O)NCc3ccccc3OC)c3ccccc3n2)cc1 -28.4%
COC(=O)c1ccc(OCC2c3cc(OC)c(OC)cc3CCN2C(=O)Cc2ccc(OC)cc2)cc1 (stereo not drawn) -27.8%
CCOc1ccc(N2CC(NC(=O)C(=O)c3c[nH]c4ccccc34)CC2=O)cc1 (stereo not drawn) -9.76%
CCn1c(=O)cc(SCC(=O)NCc2ccc(F)cc2Cl)c2ccccc21 -24.7%
Cc1nn2c(-c3cccc(NC(=O)c4ccccc4)c3)nnc2c2ccccc12 5.07%
COc1ccc(-c2cn3c(n2)sc2cc(C(=O)Nc4ccc(C)c(C)c4)ccc23)cc1 -1.69%
Cc1cccc(N2CCN(C(=O)CCc3nnc4n(CC(C)C)c(=O)c5ccccc5n34)CC2)c1C -20.8%
COc1ccc(-c2cc(C)no2)cc1S(=O)(=O)N1CCOc2ccccc21 -22.5%
CCOC(=O)c1c(C)oc2ccc(N(C(=O)Oc3ccccc3)S(=O)(=O)c3ccc(CC)cc3)cc12 -25.1%
CC(C)c1ccc(OCC(=O)NC(Cc2c[nH]c3ccccc23)C(=O)O)cc1 (stereo not drawn) -6.38%
O=C(Nc1ccc(F)cc1)c1oc2ccccc2c1NC(=O)C12CC3CC(CC(C3)C1)C2 -9.3%
Cc1cccc(OC(=O)CSc2nnc(CNC(=O)c3ccccc3)o2)c1C -11.4%
CCc1nnc(SCc2cc(C)ccc2C)c2cc3sc(C)cc3n12 -19.9%
CCOC(=O)c1c(C)[nH]c(C)c1S(=O)(=O)N1CCC(C(=O)N2CCN(c3ccccc3F)CC2)CC1 -21.6%
COc1ccc(C2CC(=O)c3cc(-c4nc(-c5ccc(Cl)cc5)c(C)s4)c(=O)[nH]c3C2)cc1 (stereo not drawn) -3.96%
Cc1ccc2c(c1)-c1cc(C)nn1C(c1cc(Br)ccc1O)N2 (stereo not drawn) 5.67%
CCNC(=O)[C@H]1O[C@@H](n2cnc3c(N)nc(NCCc4ccc(CCC(=O)O)cc4)nc32)[C@H](O)[C@H]1O -4.82%
O=S(=O)(Nc1nc2n(n1)C(c1ccc(F)cc1)C=C(c1ccccc1)N2)c1ccccc1 (stereo not drawn) -5.41%
COC(=O)c1ccc2c(=O)n(CCCCCC(=O)NCc3ccc(Cl)cc3)c(=O)[nH]c2c1 -40.2%
Cc1ccc2ncc(C(=O)Nc3ccc(F)cc3F)c(=O)n2c1 35.9%
Cc1cc(C)c2c(=O)cc(C(=O)Nc3ccccc3C(F)(F)F)oc2c1 -11.5%
Cc1cc(NC(=O)CCS(=O)(=O)c2cc3c4c(c2)CCN4C(=O)CC3)ccc1Br -12.9%
CCOC(=O)c1c(-c2ccc(Br)cc2)csc1NC(=O)c1ccc(F)cc1 -6.22%
COC(=O)c1ccccc1NC(=O)CSc1nc2ccccc2nc1Cc1ccccc1OC 1.43%
CN(C(=O)c1cc2nc(-c3ccco3)cc(C(F)(F)F)n2n1)c1ccc(OC(F)(F)Cl)cc1 3.19%
Cc1ccc(CSc2cn(CC(=O)N3CCCC3)c3ccccc23)cc1 21%
